Data as given in ChEMBL document CHEMBL4888484, “Replenishing the malaria drug discovery pipeline: Screening and hit evaluation of the MMV Hit Generation Library 1 (HGL1) against asexual blood stage Plasmodium falciparum ,using a nano luciferase reporter read-out” (2022).
About 540 (0.36%) of roughly 150,000 compounds showed an effect of 50% or more. This is one part of the list.

System: Plasmodium falciparum
Experiment: Primary screen in NF54 nanoGlo assay, in single point, at 2uM, 72h; a lower Z score goes with more inhibition
Type: functional, Erythrocyte
Details: timepoint 72 hour

Row | SMILES | % Inhibition | Z score
1 | Cc1nnc2cc(N3CCN(Cc4csc5c4CCCC5)CC3)cnn12 | 3% | -0.37
2 | NC(=O)CO[C@@H]1CO[C@H]2[C@@H]1OC[C@@H]2NS(=O)(=O)c1cccs1 | -11% | 1.71
3 | CNc1cc(C(=O)N2CCN(Cc3[nH]cnc3C)C[C@H](O)C2)ccn1 | -9% | 1.33
4 | CCCc1cc(NS(=O)(=O)c2ccc3c(c2)CCCC3=O)n(C)n1 | -12% | 1.66
5 | CN(C)C(N)=NCCN(C)c1ccccc1 | -1% | 0.23
6 | Cn1c(C(C)(C)NCc2cc(O)cc(Cl)c2)nc2ccccc21 | 2% | -0.38
7 | COCCn1c(C)cc(=O)c(C(=O)NCCc2nc3ccccc3[nH]2)c1CC1CCCC1 | 19% | -2.44
8 | O=C(CCN1CCN(Cc2ccccc2)CC1)Nc1ccc2c(c1)CCC2 | 4% | -0.63
9 | COc1ccccc1/N=C(/NC(=O)c1ccccc1)N1CCN(CCC#N)CC1 | -1% | 0.22
10 | CCN(CC)c1nc(NCCO)c2ccccc2n1 | -13% | 1.83
11 | CC(C)n1nnnc1CN[C@H]1CCCC1(C)C | 1% | -0.15
12 | COc1ccccc1NC(=O)Cn1nc2c(C)c(C)nc(C)n2c1=O | -12% | 2.21
13 | CC1CCC(NC(=O)CN(C)C2CCCCC2)CC1 (configuration not stated) | -8% | 1.06
14 | Cc1cnn([C@@H](C)c2nc(CC3CC3)nn2C(C)(C)C)c1 | 9% | -1.24
15 | COCc1ccc(CNCC(C)(C)S(C)(=O)=O)cc1 | -3% | 0.37
16 | Cc1oncc1CNC(=O)c1cccc(Cl)c1 | -8% | 1.29
17 | CN1CCN(C(=O)c2ccc3ncccc3c2)CC1=O | -12% | 1.74
18 | O=C(c1cc(-n2ccnc2)ccn1)N1CCn2c1nc1ccccc12 | -15% | 2.27
19 | COc1ccc(CC(=O)N2CCN(S(=O)(=O)c3cc4c(cc3C)NC(=O)CO4)CC2)cc1 | 11% | -1.08

Row | SMILES | % Inhibition | Z score
20 | CN(C)c1cccc(CCC(=O)N2CCC[C@H](N3CCCC3)CC2)c1 | -11% | 1.29
21 | CC(NC1CC(NC(=O)OC(C)(C)C)C1(C)C)c1nccn1C (configuration not stated) | 4% | -0.75
22 | Clc1cnn(CCN2CCC[C@H](c3nnc4ccccn34)C2)c1 | -1% | 0.19
23 | Cn1ccnc1C(=O)N[C@H]1CC(=O)N(c2ccc(F)cc2)C1 | -6% | 0.89
24 | COc1cc(CN(C)CCc2ncc(C)s2)cc2c1OCCO2 | 3% | -0.35
25 | Cc1ccncc1C(=O)N1CCO[C@H](c2cnn(C)c2)C1 | 1% | -0.13
26 | CC(C)Cc1nsc(N2CCOC3CCN(C)CC32)n1 (configuration not stated) | 39% | -1.25
27 | CCc1ccccc1NC(=O)c1nn(CCOC)c2c1CNCC2 | -15% | 2.13
28 | CC(C)(C)c1cn2nc(N3CCS(=O)(=O)CC3)sc2n1 | -3% | 0.39
29 | COc1cc(C[C@@H]2C(=O)Nc3cc(Cl)ccc32)cc2c1OCCO2 | -5% | 0.66
30 | COc1cccc(NC(=O)c2cc3nccc(-c4cnn(C)c4C)n3n2)c1 | -2% | 0.2
31 | Cc1noc([C@]23CN(Cc4ccccc4)CC[C@H]2CN(C(=O)C(C)C)C3)n1 | 7% | -1.09
32 | CCOC[C@H]1CCCN1C(=O)c1cc(C)nc2ccccc12 | -2% | 0.27
33 | Cc1[nH]cnc1CNC(=O)[C@]1(c2ccccc2)CC12CCCC2 | -1% | 0.16
34 | Cc1cc(-c2csc(CCCNC(=O)OC(C)(C)C)n2)on1 | -13% | 1.26
35 | Fc1ccc(-c2cc3c(N4CCCCCC4)nccn3n2)cc1 | 33% | -4.47
36 | c1csc([C@@H]2CN(c3nccn4ccnc34)CCO2)n1 | -9% | 1.27
37 | O=C(NCC[C@H](O)C1CC1)c1cnccn1 | -23% | 3.37
38 | Cn1nccc1CS(=O)(=O)Cc1ccc(F)c(Br)c1 | -2% | 0.27

Row | SMILES | % Inhibition | Z score
39 | COc1ccc2c(c1)CN(C(=O)COc1ccccc1)CC[C@H]1COC(=O)N21 | -1% | 0.13
40 | Cc1c(Cl)c(C(=O)N2[C@H]3CCNC[C@@H]2CC3)nn1C | -9% | 1.11
41 | Cc1ccc(-c2ccc(=O)n(Cc3noc(C(=O)N4CCC(C)CC4)n3)n2)cc1 | -12% | 1.44
42 | Cc1cc(C(=O)NC2(CNC(=O)OC(C)(C)C)CCCC2)on1 | 9% | -1.61
43 | Cc1nn(-c2ccc3nnc(C)n3n2)c(C)c1CCC(=O)NCc1ccco1 | -11% | 1.43
44 | Cc1cccc(NC(=O)c2cc(C)c3c(c2)-c2ccccc2S(=O)(=O)N3C)c1C | -2% | 0.23
45 | CC[C@H](C)NS(=O)(=O)c1ccc(F)cc1F | 0% | 0.04
46 | Cc1n[nH]c(=O)c(C(=O)N(C)Cc2ccccc2)c1C | -8% | 1.27
47 | OCc1ccccc1NCc1cnn(Cc2ccccc2Cl)c1 | 12% | -1.98
48 | CCn1c(-c2cc(NC(=O)c3cc(F)cc(F)c3)[nH]n2)cc2ccc(OC)cc21 | 14% | -1.57
49 | CC(C)[C@H](NC(=O)C(F)(F)F)c1nc(C2CCCO2)no1 (some centres not stated) | 4% | -0.48
50 | O=C(NCc1cc(F)cc(F)c1)C1=CCC1 | -12% | 1.44
51 | CC(C)CCN(Cc1nnnn1C1CC1)C1CC1 | -7% | 0.69
52 | COCCc1noc(CNC(=O)c2cc(=O)c3cccc(F)c3[nH]2)n1 | -6% | 0.7
53 | O=C(CS(=O)(=O)C[C@H]1CCCO1)NCCc1ccc(F)cc1 | -5% | 0.93
54 | CC(C)Cc1nc(Cc2ccccn2)n(-c2ccccn2)n1 | 9% | -1.24
55 | CCN(CC)C(=O)c1ccc([C@@H](O)C(Cl)(Cl)Cl)o1 | -17% | 2.27
56 | COCCCCC(=O)Nc1cccc(F)c1C | -10% | 1.46
